# Measurements taken from the supplement of paper PMC8728848.
# Some of the results follow.
# B1: CCL2 (Coprinopsis cinerea), B3GA02 (protein)
# chain: MDSPAVTLSAGNYIIYNRVLSPRGEKLALTYPGRQRTPVTVSPLDGSSEQAWILRSYDSNSNTWTISPVGSPNSQIGWGAGNVPVVLPPNNYVWTLTLTSGGYNIQDGKRTVSWSLNNATAGEEVSIGADATFSGRWVIEKV
# Experiments:
# Assay in all cases: glycan array binding signal (z-score within array); higher = stronger binding
# Settings in all cases: glycan notation: IUPAC condensed, linker removed
# [1] = biological target: GlcNAc(b1-4)GlcNAc(b1-4)GlcNAc
# Method in brief: (§1)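 Columns mapping to the same glycan were averaged after glycan names were converted to IUPAC-condensed notation. The data come from 3228 arrays in the Consortium for Functional Glycomics database, limited to those with an available protein sequence. Binding is reported as a within-array Z-score averaged across arrays of one protein sequence and across linkers.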
# [2] = biological target: GlcNAc(b1-4)GlcNAc(b1-4)GlcNAc(b1-4)GlcNAc(b1-4)GlcNAc
# Method in brief: as §1
# [3] = biological target: GlcNAc(b1-4)GlcNAc(b1-4)GlcNAc(b1-4)GlcNAc(b1-4)GlcNAc(b1-4)GlcNAc
# Method in brief: as §1
# [4] = biological target: GlcNAc(b1-4)[GlcNAc(b1-6)]GalNAc
# Method in brief: as §1
# [5] = biological target: GlcNAc(b1-6)Gal(b1-4)GlcNAc
# Method in brief: as §1
# [6] = biological target: GlcNAc(b1-6)GalNAc
# Method in brief: as §1
# [7] = biological target: GlcNAc3Prop(b1-4)GlcNAc
# Method in brief: as §1
# [8] = biological target: GlcNAc6S(b1-3)Gal(b1-4)GlcNAc
# Method in brief: as §1
# [9] = biological target: Kdn(a2-3)Gal(b1-3)GalNAc
# Method in brief: as §1
# [10] = biological target: Kdn(a2-3)Gal(b1-3)GlcNAc
# Method in brief: as §1
# [11] = biological target: Kdn(a2-3)Gal(b1-4)Glc
# Method in brief: as §1
# [12] = biological target: Kdn(a2-3)Gal(b1-4)GlcNAc
# Method in brief: as §1
# [13] = biological target: Kdn(a2-3)Gal(b1-4)[Fuc(a1-3)]GlcNAc
# Method in brief: as §1
# [14] = biological target: Kdn(a2-6)Gal(b1-4)GlcNAc
# Method in brief: as §1
# [15] = biological target: Man(a1-2)Man(a1-2)Man(a1-3)Man
# Method in brief: as §1
# [16] = biological target: Man(a1-2)Man(a1-2)Man(a1-6)[Man(a1-3)]Man
# Method in brief: as §1
# [17] = biological target: Man(a1-2)Man(a1-3)Man
# Method in brief: as §1
# [18] = biological target: Man(a1-2)Man(a1-3)[Man(a1-2)Man(a1-6)]Man
# Method in brief: as §1
# [19] = biological target: Man(a1-2)Man(a1-3)[Man(a1-2)Man(a1-6)]Man(a1-6)[Man(a1-2)Man(a1-2)Man(a1-3)]Man
# Method in brief: as §1
# [20] = biological target: Man(a1-2)Man(a1-3)[Man(a1-2)Man(a1-6)]Man(a1-6)[Man(a1-2)Man(a1-2)Man(a1-3)]Man(b1-4)GlcNAc(b1-4)GlcNAc
# Method in brief: as §1
# [21] = biological target: Man(a1-2)Man(a1-3)[Man(a1-6)]Man(a1-6)[Man(a1-2)Man(a1-3)]Man(b1-4)GlcNAc(b1-4)GlcNAc
# Method in brief: as §1
# [22] = biological target: Man(a1-2)Man(a1-6)[Man(a1-3)]Man(a1-6)[Man(a1-2)Man(a1-2)Man(a1-3)]Man
# Method in brief: as §1
# [23] = biological target: Man(a1-2)Man(a1-6)[Man(a1-3)]Man(a1-6)[Man(a1-2)Man(a1-2)Man(a1-3)]Man(b1-4)GlcNAc(b1-4)GlcNAc
# Method in brief: as §1
# [24] = biological target: Man(a1-3)[Man(a1-6)]Man
# Method in brief: as §1
# [25] = biological target: Man(a1-3)[Man(a1-6)]Man(a1-6)[Man(a1-2)Man(a1-3)]Man(b1-4)GlcNAc(b1-4)GlcNAc
# Method in brief: as §1
# [26] = biological target: Man(a1-3)[Man(a1-6)]Man(a1-6)[Man(a1-3)]Man
# Method in brief: as §1
# [27] = biological target: Man(a1-3)[Man(a1-6)]Man(a1-6)[Man(a1-3)]Man(b1-4)GlcNAc(b1-4)GlcNAc
# Method in brief: as §1
# [28] = biological target: Man(a1-3)[Man(a1-6)]Man(b1-4)GlcNAc(b1-4)GlcNAc
# Method in brief: as §1
# [29] = biological target: Man(a1-6)Man
# Method in brief: as §1
# [30] = biological target: Man(b1-4)GlcNAc
# Method in brief: as §1
# [31] = biological target: Neu5Ac(a2-3)Gal
# Method in brief: as §1
# [32] = biological target: Neu5Ac(a2-3)Gal(b1-3)GalNAc
# Method in brief: as §1
# [33] = biological target: Neu5Ac(a2-3)Gal(b1-3)GalNAc(b1-3)Gal(a1-4)Gal(b1-4)Glc
# Method in brief: as §1
# [34] = biological target: Neu5Ac(a2-3)Gal(b1-3)GalNAc(b1-3)Gal(b1-4)GlcNAc
# Method in brief: as §1
# [35] = biological target: Neu5Ac(a2-3)Gal(b1-3)GalNAc(b1-4)[Neu5Ac(a2-3)]Gal(b1-4)Glc
# Method in brief: as §1
# [36] = biological target: Neu5Ac(a2-3)Gal(b1-3)GalNAc6S
# Method in brief: as §1
# [37] = biological target: Neu5Ac(a2-3)Gal(b1-3)GlcNAc
# Method in brief: as §1
# [38] = biological target: Neu5Ac(a2-3)Gal(b1-3)GlcNAc(b1-3)Gal(b1-3)GlcNAc
# Method in brief: as §1
# [39] = biological target: Neu5Ac(a2-3)Gal(b1-3)GlcNAc6S
# Method in brief: as §1
# [40] = biological target: Neu5Ac(a2-3)Gal(b1-3)[Fuc(a1-4)]GlcNAc
# Method in brief: as §1
# [41] = biological target: Neu5Ac(a2-3)Gal(b1-3)[Fuc(a1-4)]GlcNAc(b1-3)Gal(b1-3)[Fuc(a1-4)]GlcNAc
# Method in brief: as §1
# [42] = biological target: Neu5Ac(a2-3)Gal(b1-3)[Fuc(a1-4)]GlcNAc(b1-3)Gal(b1-4)[Fuc(a1-3)]GlcNAc
# Method in brief: as §1
# [43] = biological target: Neu5Ac(a2-3)Gal(b1-3)[Neu5Ac(a2-3)Gal(b1-4)]GlcNAc
# Method in brief: as §1
# [44] = biological target: Neu5Ac(a2-3)Gal(b1-3)[Neu5Ac(a2-6)]GalNAc
# Method in brief: as §1
# [45] = biological target: Neu5Ac(a2-3)Gal(b1-4)Glc
# Method in brief: as §1
binder,measurement,setting,value
B1,glycan array binding signal (z-score),[1],-0.246
same,glycan array binding signal (z-score),[2],-0.255
same,glycan array binding signal (z-score),[3],-0.245
same,glycan array binding signal (z-score),[4],-0.284
same,glycan array binding signal (z-score),[5],-0.285
same,glycan array binding signal (z-score),[6],-0.3
same,glycan array binding signal (z-score),[7],-0.272
same,glycan array binding signal (z-score),[8],-0.286
same,glycan array binding signal (z-score),[9],-0.168
same,glycan array binding signal (z-score),[10],-0.257
same,glycan array binding signal (z-score),[11],-0.285
same,glycan array binding signal (z-score),[12],-0.286
same,glycan array binding signal (z-score),[13],-0.246
same,glycan array binding signal (z-score),[14],-0.283
same,glycan array binding signal (z-score),[15],-0.159
same,glycan array binding signal (z-score),[16],-0.258
same,glycan array binding signal (z-score),[17],-0.287
same,glycan array binding signal (z-score),[18],-0.278
same,glycan array binding signal (z-score),[19],-0.281
same,glycan array binding signal (z-score),[20],-0.292
same,glycan array binding signal (z-score),[21],-0.288
same,glycan array binding signal (z-score),[22],-0.275
same,glycan array binding signal (z-score),[23],-0.297
same,glycan array binding signal (z-score),[24],-0.265
same,glycan array binding signal (z-score),[25],-0.277
same,glycan array binding signal (z-score),[26],-0.245
same,glycan array binding signal (z-score),[27],-0.231
same,glycan array binding signal (z-score),[28],-0.239
same,glycan array binding signal (z-score),[29],-0.296
same,glycan array binding signal (z-score),[30],-0.3
same,glycan array binding signal (z-score),[31],-0.224
same,glycan array binding signal (z-score),[32],-0.166
same,glycan array binding signal (z-score),[33],-0.278
same,glycan array binding signal (z-score),[34],-0.296
same,glycan array binding signal (z-score),[35],-0.249
same,glycan array binding signal (z-score),[36],-0.233
same,glycan array binding signal (z-score),[37],-0.282
same,glycan array binding signal (z-score),[38],-0.201
same,glycan array binding signal (z-score),[39],-0.282
same,glycan array binding signal (z-score),[40],-0.283
same,glycan array binding signal (z-score),[41],0.068
same,glycan array binding signal (z-score),[42],-0.104
same,glycan array binding signal (z-score),[43],-0.259
same,glycan array binding signal (z-score),[44],0.849
same,glycan array binding signal (z-score),[45],-0.28
